Measurements: the supplement of paper PMC10126150
Values marked as one replicate rest on one cluster of the flow cell; about a third of the high ones do not repeat.

tested on: ATP; test: switch fluorescence ratio, 500 uM ATP over buffer (Cy3 cluster intensity, sum of 5 cycles each) (fold (ratio)); higher = stronger signal-on switching upon ATP binding; sequences stand for … in TCGTCGGCAGCGTCAGATGTGTATAAGAGACAGTTTTTTTTTTTTTTTTTTTTTTTTT…TC; conditions: aptamer strand: ATP DNA aptamer (quencher-CACCTGGGGGAGTATTGCGGAGGAAGG + anchor), 100 nM annealed; ATP concentration: 500 uM; one replicate
How it was run: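 Per cluster, summed Cy3 intensity from the target cycles was divided by that from the buffer cycles to give the fluorescence ratio, then averaged per switch-domain sequence. Clusters outside 100-1000 RFU were excluded. The Cy3-labelled switching-strand clusters, on a modified Illumina MiSeq flow-cell, were annealed to 100 nM quencher-labelled ATP aptamer and imaged in selection buffer, then after 15 min with 500 uM ATP at 22 °C, for five cycles with NaOH stripping and re-annealing between them.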
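Further: ATP exposure 15 min at 22 °C before imaging.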

Sequence | switch fluorescence ratio
CCCAGCGAAG | 0.983
CAGGGAAGAA | 0.976
TGCAACATAT | 2.04
ATAAGTAGCA | 0.977
CTTTTTACAA | 0.97
AGGAGTAGGT | 0.968
TGAATTAAGC | 1.05
TTGCATCTA | 1.05
ATACCCGAGA | 1.05
CTATTGGCAG | 0.978
GGTGTAGCAC | 1.03
AATACATTGG | 1.02
CTTTCGGCTG | 0.96
CATTAAAAGC | 1.04
TGACCTTTTT | 0.988
TGCTCAGAAG | 0.949
CCGTCGACTG | 1.01
AATTCTAAGG | 1.02
GCATGGGGG | 0.969
ATGTACCTGG | 0.983
TTAGTCTTTA | 0.991
GTAGATTGGT | 0.97
AAGTGATAGA | 1.07

Sequence | switch fluorescence ratio
TAGGACAAAC | 1.42
CAGTGCATCC | 1.06
GTATACTCTC | 1.04
CAAGATAGAT | 1
GCTTCTTTCG | 0.966
CTCTTGAGCT | 1.02
AGCGTGGCAG | 0.966
CGGCGAAATC | 1.04
CTGTAGTGCA | 1.08
CCCCGTCTTA | 1.12
AAGGAGTTC | 0.967
ATCGCGTTA | 0.98
TCCTTAAACC | 1.08
CGGTGCATGC | 1.31
ACCACGAGGC | 1.05
TTTGTTGACT | 0.957
ACAAACAGAC | 1.21
ATCCATTTGG | 1.01
AGTAGCTGCG | 1.03
ACTGTGAAT | 1.01
CTGCTTTATG | 1.02
ATTTGACATC | 1.02
GGGCAGGTCC | 1.02

Sequence | switch fluorescence ratio
GACGCGAGGG | 0.965
TAATTCTCGC | 1.01
GGACGGCGTG | 0.933
TGAACGGGTA | 1.05
CGGTGTTTAA | 0.978
CAGTAATGGG | 0.988
CTGACGCTCA | 2.73
AGCGGCTTGG | 0.967
TATTAGCAAA | 1.03
ACTTGATTCT | 1
GAATTCTATT | 0.994
ATACGACTAT | 1.1
AATCGACGGA | 1.04
GCGCTGCATC | 1.15
TCGCGGGTCT | 1.06
GGTGTATGTG | 0.996
GTGCTTCAGA | 0.977
TTCATATTTG | 0.97
ATACCTTTTA | 1.04
GACCTGGCCG | 1.11
CAAGGACGAA | 1.07
TTCGCGAGAA | 1.02
TCTTTGCCC | 0.992

Sequence | switch fluorescence ratio
GATGGGTGTG | 0.981
GTGTGGAGTA | 1.01
TATAAAGGAC | 1.06
ATCTAGAATT | 1.01
AATAGGCAAG | 0.974
CTGTTTGCTA | 1.02
TGTTGTATAC | 0.994
CAACATACGG | 1.46
TAATGGGCC | 1
CACTCAAGG | 1.04
CCATCTGTCA | 1.03
GTGTTTTGAT | 1.02
TGATACGGGA | 1.05
GGAAGGTTGT | 0.983
CGGTATCTAA | 1.04
TGAAGGGATA | 0.991
TTGCTTACGA | 1.05
AGTCCCTATA | 1.04
GACGTCAAT | 1.06
GCTTATTTTT | 1.04
TCGGTCGTTC | 1.03
GCATACCATG | 0.973
CCGAAACCGT | 1.15

Sequence | switch fluorescence ratio
GGACTCATTA | 1
AACCAGGCAA | 1.31
ACGGGCCCGT | 0.979
GCGCGGCTAA | 1.01
CGGGGTTCAA | 0.939
TTCTCTGGTT | 1.15
TCCGATGTAT | 1.07
CGATCGTATT | 1.09
ACTTAGACTG | 0.935
ATCGTCTTCA | 1
CATCCCATGG | 1.3
ATAACTACAC | 1.21
GCGAATTTAT | 0.978
CGCTAGTGCA | 0.983
CGTTTCTTA | 0.98
AACGCAGGTT | 1.01
AGAGGGAGGC | 0.921
ATAACCTCTT | 1.07
GTTACTGTTA | 1.04
TTGCCAGCTG | 0.996
TAGTGAAGGA | 1.03
ACTTATGCAC | 1.13
CCGTAGTGCT | 2.65

Sequence | switch fluorescence ratio
GCCCAGGACA | 1.15
AGGTTAACCC | 1.01
TGAGGATCAA | 1.01
CAAACCCAGG | 3.27
GAATGTTCGC | 1.05
TAACTAGTTG | 1.01
TAATGTTAAG | 0.962
TAGTCTATGA | 0.938
GGTATGACCT | 1.07
CAACTCAGAT | 1
AAACCCCGGG | 1.13
CTATGGTGGC | 1.03
TTCATATATC | 0.952
AGGTGGTATA | 1.02
GGATAGATCT | 1
TCGACTGCGA | 2.43
GACCTTGCT | 1.79
ATGCGAGCAC | 0.995
CACTGGGCCT | 1.05
ATTATCCTGA | 1.02
GTCTCCGGAC | 1.17
CATGTTATCT | 1.02
ATTGGAGATA | 0.943

Sequence | switch fluorescence ratio
CGTATACCCC | 1.25
CATACTCTCG | 1.07
CTGTAGTGGA | 1.02
AGATTGGTCG | 0.914
TCCCACTATT | 0.998
GCGCGGACTG | 1
GATGCGGATG | 0.938
AGTGAAGTTC | 1.01
CTATTTACTT | 1.05
CCAAAGTTTA | 1.04
CTTAGCGCTC | 0.989
TTCTAATGCG | 1.04
CATTGCCGGT | 1.03
CTTGGATGAT | 1.05
ACCATTTCTC | 1.05
GACCTAGATT | 0.997
ATTCGTTTAC | 1.07
TCTCCTGAAT | 0.992
TGTCTGTATT | 0.965
